Binding signal (RPM ratio (pull-down/input)) data for 63 sequences are collected here from paper PMC12820563.

Some of the results follow. The list includes weakly bound sequences.

The target of the test is T1, MBP-FoxP3dN (UniProt Q99JB6).
T1 sequence: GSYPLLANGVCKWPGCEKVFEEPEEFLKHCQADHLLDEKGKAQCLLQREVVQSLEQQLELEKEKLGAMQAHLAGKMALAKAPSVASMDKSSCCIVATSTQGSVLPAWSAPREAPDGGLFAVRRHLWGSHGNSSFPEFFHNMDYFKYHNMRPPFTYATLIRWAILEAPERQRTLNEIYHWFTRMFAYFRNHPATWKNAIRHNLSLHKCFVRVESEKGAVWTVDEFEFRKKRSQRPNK
In words: PD-seq (MBP pull-down with sequencing). The note with it: 20 mM Tris-HCl pH 7.5, 100 mM NaCl, 1.5 mM MgCl2, 0.4 uM protein, 0.1 uM dsDNA library, 30 min, room temperature, amylose pull-down; high values mean tight binding; double strand, one strand shown.
As for “GATGATTGTTCTCCCAGCTGATGAATTCAACTATTCGAGTAAACAAATTTTCCTAATCTTTCTGTTCAAGCGCCATCTAC”, the binding signal (RPM ratio (pull-down/input)) amounted to 0.418. With “GATGATTGTTCTCCCAGCTGATGAATTAGAGCGATCGAGTAAACAAATTTTCCTAATCTTTCTGTTCAAGCGCCATCTAC”, the binding signal (RPM ratio (pull-down/input)) came to 0.488.

As for “GATGATTGTTCTCCCAGCTGATGAATTCTAGTTGTCGAGTAAACAAATTTTCCTAATCTTTCTGTTCAAGCGCCATCTAC”, the binding signal (RPM ratio (pull-down/input)) was 1.26. The result for “GATGATTGTTCTCCCAGCTGATGAATTTGAGGTTTCGAGTAAACAAATTTTCCTAATCTTTCTGTTCAAGCGCCATCTAC” reads 0.841; that for “GATGATTGTTCTCCCAGCTGATGAATTCGAATGATCGAGTAAACAAATTTTCCTAATCTTTCTGTTCAAGCGCCATCTAC”, 0.366; that for “GATGATTGTTCTCCCAGCTGATGAATTAAGTTAGTCGAGTAAACAAATTTTCCTAATCTTTCTGTTCAAGCGCCATCTAC”, 1.87. As for “GATGATTGTTCTCCCAGCTGATGAATTCAGCATTTCGAGTAAACAAATTTTCCTAATCTTTCTGTTCAAGCGCCATCTAC”, the binding signal (RPM ratio (pull-down/input)) amounted to 5.86.

Turning to “GATGATTGTTCTCCCAGCTGATGAATTCGAGCCATCGAGTAAACAAATTTTCCTAATCTTTCTGTTCAAGCGCCATCTAC”, the binding signal (RPM ratio (pull-down/input)) was 1.13. Turning to “GATGATTGTTCTCCCAGCTGATGAATTCTAACCGTCGAGTAAACAAATTTTCCTAATCTTTCTGTTCAAGCGCCATCTAC”, the binding signal (RPM ratio (pull-down/input)) turned out to be 0.314.

With “GATGATTGTTCTCCCAGCTGATGAATTTCATTCCTCGAGTAAACAAATTTTCCTAATCTTTCTGTTCAAGCGCCATCTAC”, the binding signal (RPM ratio (pull-down/input)) worked out at 0.482. The result for “GATGATTGTTCTCCCAGCTGATGAATTCTCTAAGTCGAGTAAACAAATTTTCCTAATCTTTCTGTTCAAGCGCCATCTAC” reads 0.192. Then “GATGATTGTTCTCCCAGCTGATGAATTCTTCTCGTCGAGTAAACAAATTTTCCTAATCTTTCTGTTCAAGCGCCATCTAC”, with 0.246; and “GATGATTGTTCTCCCAGCTGATGAATTTTCAGGGTCGAGTAAACAAATTTTCCTAATCTTTCTGTTCAAGCGCCATCTAC”, with 0.188.

Regarding “GATGATTGTTCTCCCAGCTGATGAATTGTGACTTTCGAGTAAACAAATTTTCCTAATCTTTCTGTTCAAGCGCCATCTAC”, the binding signal (RPM ratio (pull-down/input)) was determined as 2.08.

As to “GATGATTGTTCTCCCAGCTGATGAATTAGGCTCATCGAGTAAACAAATTTTCCTAATCTTTCTGTTCAAGCGCCATCTAC”, the binding signal (RPM ratio (pull-down/input)) turned out to be 0.683. Take “GATGATTGTTCTCCCAGCTGATGAATTGCCACGATCGAGTAAACAAATTTTCCTAATCTTTCTGTTCAAGCGCCATCTAC”: the binding signal (RPM ratio (pull-down/input)) turned out to be 0.658. “GATGATTGTTCTCCCAGCTGATGAATTCAGTAAATCGAGTAAACAAATTTTCCTAATCTTTCTGTTCAAGCGCCATCTAC”: the binding signal (RPM ratio (pull-down/input)) amounted to 0.327.

On to “GATGATTGTTCTCCCAGCTGATGAATTTTGTCACTCGAGTAAACAAATTTTCCTAATCTTTCTGTTCAAGCGCCATCTAC”, for which the binding signal (RPM ratio (pull-down/input)) came out at 3.67. Consider “GATGATTGTTCTCCCAGCTGATGAATTAGTTTTCTCGAGTAAACAAATTTTCCTAATCTTTCTGTTCAAGCGCCATCTAC”, for which the binding signal (RPM ratio (pull-down/input)) came out at 4.62. For “GATGATTGTTCTCCCAGCTGATGAATTTGGTGACTCGAGTAAACAAATTTTCCTAATCTTTCTGTTCAAGCGCCATCTAC”, the binding signal (RPM ratio (pull-down/input)) stood at 1.57.

Turning to “GATGATTGTTCTCCCAGCTGATGAATTGCAATTTTCGAGTAAACAAATTTTCCTAATCTTTCTGTTCAAGCGCCATCTAC”, the binding signal (RPM ratio (pull-down/input)) was determined as 1.59. Then “GATGATTGTTCTCCCAGCTGATGAATTCCCTTCATCGAGTAAACAAATTTTCCTAATCTTTCTGTTCAAGCGCCATCTAC”, with 0.33. The result for “GATGATTGTTCTCCCAGCTGATGAATTGTGATCGTCGAGTAAACAAATTTTCCTAATCTTTCTGTTCAAGCGCCATCTAC” reads 1.03; that for “GATGATTGTTCTCCCAGCTGATGAATTGCCTTCTTCGAGTAAACAAATTTTCCTAATCTTTCTGTTCAAGCGCCATCTAC”, 0.882. The result for “GATGATTGTTCTCCCAGCTGATGAATTCCACAGGTCGAGTAAACAAATTTTCCTAATCTTTCTGTTCAAGCGCCATCTAC” reads 0.209; that for “GATGATTGTTCTCCCAGCTGATGAATTGTCGTTGTCGAGTAAACAAATTTTCCTAATCTTTCTGTTCAAGCGCCATCTAC”, 1.11; that for “GATGATTGTTCTCCCAGCTGATGAATTACGATACTCGAGTAAACAAATTTTCCTAATCTTTCTGTTCAAGCGCCATCTAC”, 0.847. Turning to “GATGATTGTTCTCCCAGCTGATGAATTATAAAATTCGAGTAAACAAATTTTCCTAATCTTTCTGTTCAAGCGCCATCTAC”, the binding signal (RPM ratio (pull-down/input)) amounted to 0.28. On to “GATGATTGTTCTCCCAGCTGATGAATTTGACCTCTCGAGTAAACAAATTTTCCTAATCTTTCTGTTCAAGCGCCATCTAC”, for which the binding signal (RPM ratio (pull-down/input)) turned out to be 0.499. Regarding “GATGATTGTTCTCCCAGCTGATGAATTCCGTCCCTCGAGTAAACAAATTTTCCTAATCTTTCTGTTCAAGCGCCATCTAC”, the binding signal (RPM ratio (pull-down/input)) is 0.774.

As for “GATGATTGTTCTCCCAGCTGATGAATTGGTACTATCGAGTAAACAAATTTTCCTAATCTTTCTGTTCAAGCGCCATCTAC”, the binding signal (RPM ratio (pull-down/input)) is 0.703. Then “GATGATTGTTCTCCCAGCTGATGAATTGCGGTACTCGAGTAAACAAATTTTCCTAATCTTTCTGTTCAAGCGCCATCTAC”, with 0.981. As for “GATGATTGTTCTCCCAGCTGATGAATTCGATGGGTCGAGTAAACAAATTTTCCTAATCTTTCTGTTCAAGCGCCATCTAC”, the binding signal (RPM ratio (pull-down/input)) was found to be 1.24.

“GATGATTGTTCTCCCAGCTGATGAATTTTCTACTTCGAGTAAACAAATTTTCCTAATCTTTCTGTTCAAGCGCCATCTAC”: the binding signal (RPM ratio (pull-down/input)) turned out to be 0.267.

Turning to “GATGATTGTTCTCCCAGCTGATGAATTACGTACCTCGAGTAAACAAATTTTCCTAATCTTTCTGTTCAAGCGCCATCTAC”, the binding signal (RPM ratio (pull-down/input)) stood at 0.718.

As to “GATGATTGTTCTCCCAGCTGATGAATTTAGCCAATCGAGTAAACAAATTTTCCTAATCTTTCTGTTCAAGCGCCATCTAC”, the binding signal (RPM ratio (pull-down/input)) is 0.774. For “GATGATTGTTCTCCCAGCTGATGAATTACAGACATCGAGTAAACAAATTTTCCTAATCTTTCTGTTCAAGCGCCATCTAC”, the binding signal (RPM ratio (pull-down/input)) came out at 0.5. Then “GATGATTGTTCTCCCAGCTGATGAATTCGGCAAGTCGAGTAAACAAATTTTCCTAATCTTTCTGTTCAAGCGCCATCTAC”, with 1.34. For “GATGATTGTTCTCCCAGCTGATGAATTTCCGCATTCGAGTAAACAAATTTTCCTAATCTTTCTGTTCAAGCGCCATCTAC”, the binding signal (RPM ratio (pull-down/input)) worked out at 6.24. The result for “GATGATTGTTCTCCCAGCTGATGAATTGTGAGAGTCGAGTAAACAAATTTTCCTAATCTTTCTGTTCAAGCGCCATCTAC” reads 0.48. The result for “GATGATTGTTCTCCCAGCTGATGAATTGATCTAGTCGAGTAAACAAATTTTCCTAATCTTTCTGTTCAAGCGCCATCTAC” reads 0.257; that for “GATGATTGTTCTCCCAGCTGATGAATTTTCAGAATCGAGTAAACAAATTTTCCTAATCTTTCTGTTCAAGCGCCATCTAC”, 0.168; that for “GATGATTGTTCTCCCAGCTGATGAATTCCTGAGTTCGAGTAAACAAATTTTCCTAATCTTTCTGTTCAAGCGCCATCTAC”, 0.348.

For “GATGATTGTTCTCCCAGCTGATGAATTTAAGAGATCGAGTAAACAAATTTTCCTAATCTTTCTGTTCAAGCGCCATCTAC”, the binding signal (RPM ratio (pull-down/input)) was determined as 0.24. For “GATGATTGTTCTCCCAGCTGATGAATTTCACCTATCGAGTAAACAAATTTTCCTAATCTTTCTGTTCAAGCGCCATCTAC”, the binding signal (RPM ratio (pull-down/input)) was determined as 0.392. The result for “GATGATTGTTCTCCCAGCTGATGAATTATAACAGTCGAGTAAACAAATTTTCCTAATCTTTCTGTTCAAGCGCCATCTAC” reads 0.592. Then “GATGATTGTTCTCCCAGCTGATGAATTGTAATTCTCGAGTAAACAAATTTTCCTAATCTTTCTGTTCAAGCGCCATCTAC”, with 0.973. The result for “GATGATTGTTCTCCCAGCTGATGAATTACATCTATCGAGTAAACAAATTTTCCTAATCTTTCTGTTCAAGCGCCATCTAC” reads 0.703; that for “GATGATTGTTCTCCCAGCTGATGAATTACCGTTTTCGAGTAAACAAATTTTCCTAATCTTTCTGTTCAAGCGCCATCTAC”, 0.571; that for “GATGATTGTTCTCCCAGCTGATGAATTACGTTATTCGAGTAAACAAATTTTCCTAATCTTTCTGTTCAAGCGCCATCTAC”, 2.14.

For “GATGATTGTTCTCCCAGCTGATGAATTGCACCAATCGAGTAAACAAATTTTCCTAATCTTTCTGTTCAAGCGCCATCTAC”, the binding signal (RPM ratio (pull-down/input)) came to 0.831. The result for “GATGATTGTTCTCCCAGCTGATGAATTGTGTTTGTCGAGTAAACAAATTTTCCTAATCTTTCTGTTCAAGCGCCATCTAC” reads 8.45; that for “GATGATTGTTCTCCCAGCTGATGAATTCGATACTTCGAGTAAACAAATTTTCCTAATCTTTCTGTTCAAGCGCCATCTAC”, 0.588. Then “GATGATTGTTCTCCCAGCTGATGAATTAGTAGCTTCGAGTAAACAAATTTTCCTAATCTTTCTGTTCAAGCGCCATCTAC”, with 1.26; and “GATGATTGTTCTCCCAGCTGATGAATTAGATCATTCGAGTAAACAAATTTTCCTAATCTTTCTGTTCAAGCGCCATCTAC”, with 0.534.

For “GATGATTGTTCTCCCAGCTGATGAATTGGTTGTATCGAGTAAACAAATTTTCCTAATCTTTCTGTTCAAGCGCCATCTAC”, the binding signal (RPM ratio (pull-down/input)) worked out at 3.71. In the case of “GATGATTGTTCTCCCAGCTGATGAATTACAGGGATCGAGTAAACAAATTTTCCTAATCTTTCTGTTCAAGCGCCATCTAC”, the binding signal (RPM ratio (pull-down/input)) came to 0.32.

Take “GATGATTGTTCTCCCAGCTGATGAATTGACCTTTTCGAGTAAACAAATTTTCCTAATCTTTCTGTTCAAGCGCCATCTAC”: the binding signal (RPM ratio (pull-down/input)) amounted to 0.29. In the case of “GATGATTGTTCTCCCAGCTGATGAATTTTTAATCTCGAGTAAACAAATTTTCCTAATCTTTCTGTTCAAGCGCCATCTAC”, the binding signal (RPM ratio (pull-down/input)) stood at 0.267.

For “GATGATTGTTCTCCCAGCTGATGAATTCGGCCCTTCGAGTAAACAAATTTTCCTAATCTTTCTGTTCAAGCGCCATCTAC”, the binding signal (RPM ratio (pull-down/input)) amounted to 0.868. The result for “GATGATTGTTCTCCCAGCTGATGAATTCACTACGTCGAGTAAACAAATTTTCCTAATCTTTCTGTTCAAGCGCCATCTAC” reads 0.332; that for “GATGATTGTTCTCCCAGCTGATGAATTGACGCCGTCGAGTAAACAAATTTTCCTAATCTTTCTGTTCAAGCGCCATCTAC”, 0.801. Then “GATGATTGTTCTCCCAGCTGATGAATTATAAAGCTCGAGTAAACAAATTTTCCTAATCTTTCTGTTCAAGCGCCATCTAC”, with 0.289.
